Reference: publication PMC4336329 (PLoS ONE, 2015)
In all, about 310,000 compounds went through this assay and about 14,000 (4.5%) showed an effect of 50% or more. The effect is printed as a negative number. This is one part of the list.

molecular target: human ether-à-go-go-related gene (hERG) potassium channel (human, UniProt Q12809); assay: primary screen, population patch clamp on CHO cells stably expressing hERG
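Further: peak tail current of the secondary pulse compared with the same well before compound.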

Sequence of human ether-à-go-go-related gene (hERG) potassium channel (Q12809 whole entry, looked up): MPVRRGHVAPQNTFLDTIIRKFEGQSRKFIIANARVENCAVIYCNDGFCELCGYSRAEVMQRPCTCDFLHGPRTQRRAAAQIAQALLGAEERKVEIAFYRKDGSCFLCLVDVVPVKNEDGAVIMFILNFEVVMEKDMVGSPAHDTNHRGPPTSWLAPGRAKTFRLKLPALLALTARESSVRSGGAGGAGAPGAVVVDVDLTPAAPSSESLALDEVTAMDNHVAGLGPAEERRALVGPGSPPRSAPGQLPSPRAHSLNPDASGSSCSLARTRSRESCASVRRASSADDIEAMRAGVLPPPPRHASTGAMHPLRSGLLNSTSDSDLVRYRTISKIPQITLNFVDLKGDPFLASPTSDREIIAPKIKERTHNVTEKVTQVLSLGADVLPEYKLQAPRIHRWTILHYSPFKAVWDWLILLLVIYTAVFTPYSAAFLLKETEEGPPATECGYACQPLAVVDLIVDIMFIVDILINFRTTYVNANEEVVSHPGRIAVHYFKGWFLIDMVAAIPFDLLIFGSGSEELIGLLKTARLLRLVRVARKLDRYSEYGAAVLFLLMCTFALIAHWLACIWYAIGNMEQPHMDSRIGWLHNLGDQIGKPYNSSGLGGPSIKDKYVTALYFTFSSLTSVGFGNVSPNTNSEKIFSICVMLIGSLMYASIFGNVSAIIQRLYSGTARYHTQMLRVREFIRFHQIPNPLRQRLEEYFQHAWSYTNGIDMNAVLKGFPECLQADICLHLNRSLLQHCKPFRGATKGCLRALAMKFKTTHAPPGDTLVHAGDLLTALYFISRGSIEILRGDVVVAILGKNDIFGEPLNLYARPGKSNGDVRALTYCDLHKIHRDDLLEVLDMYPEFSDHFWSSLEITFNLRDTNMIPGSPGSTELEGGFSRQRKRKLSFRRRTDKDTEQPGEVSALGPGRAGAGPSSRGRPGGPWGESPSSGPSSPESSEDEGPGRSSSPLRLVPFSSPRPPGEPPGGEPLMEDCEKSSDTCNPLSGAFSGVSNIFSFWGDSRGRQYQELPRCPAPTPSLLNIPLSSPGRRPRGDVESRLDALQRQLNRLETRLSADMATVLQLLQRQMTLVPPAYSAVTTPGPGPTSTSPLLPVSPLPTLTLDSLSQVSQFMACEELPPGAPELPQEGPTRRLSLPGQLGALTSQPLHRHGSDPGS

Row | SMILES | hERG current change (%, negative = inhibition) at 10uM [%]
1 | COc1cc(OC)cc(-c2c(C#Cc3ccsc3)c3cc(-c4cccc5[nH]ccc45)ccc3n2C)c1 | -0.172
2 | CCC1(C)Cc2ccccc2C(=O)N1 (stereo not shown) | 20
3 | O=C(NCC1COc2ccccc2O1)c1ccc(-n2cncn2)c([N+](=O)[O-])c1 (stereo not shown) | -45.3
4 | COc1cc(CNc2ccccc2)c([N+](=O)[O-])cc1OC.O=C(O)C(=O)O | -3.72
5 | COC(=O)c1cc(NS(=O)(=O)c2ccc3c(c2)c(=O)n(C)c(=O)n3C)cc(C(=O)OC)c1 | 15.1
6 | Cc1nn(CC(=O)Nc2ccc(N3CCOCC3)cc2)c(C)c1Cl | 10.6
7 | O=C(Cn1nnc(-c2ccc([N+](=O)[O-])cc2)n1)NNC(=O)c1ccccc1 | 15.2
8 | O=C(Nc1ccn(Cc2ccccc2F)n1)c1ccc(COc2ccc(Br)cc2)cc1 | 1.39
9 | CC(C)c1ccc(N(CC(=O)NCC2CCCO2)C(=O)CCC(=O)Nc2nccs2)cc1 (stereo not shown) | -12.6
10 | CCOC(=O)/C=C/[C@H]1CCc2cccc(Cl)c2O1 | 9.23
11 | Cc1cc2sc3nc(=O)n(-c4ccccc4)c(=O)n3c2cc1C | 11.7
12 | CCOC(=O)CSc1nnc(CNC(=O)c2ccc(S(=O)(=O)N(C)C)cc2)n1C | 2.15
13 | CC(=O)c1c(C)[nH]c(C(=O)NCCc2cccc(C)c2)c1C | 2.87
14 | CN(C)CC(C)(C)CN=Cc1c(O)[nH]c2ccccc12 | -7.96
15 | CCOC(=O)c1c(NC(=O)CSc2n[nH]c(N)n2)sc(CC)c1C | 10.7
16 | COc1cccc(N2CCN(C(=O)CCCCCNc3nc(=S)[nH]c4ccccc34)CC2)c1 | -27.2
17 | Cc1nn(-c2ccccc2)c(N)c1C1(O)C(=O)Nc2ccc([N+](=O)[O-])cc21 (stereo not shown) | 7.11
18 | N#C/C(=C\c1cccc(O)c1)c1nc2ccccc2o1 | -3.63
19 | Cl.N=c1sccn1CC(=O)Nc1ccccc1-c1ccccc1 | -2.05
20 | CCCNC(=O)c1ccc(N(Cc2ccccc2)S(C)(=O)=O)cc1 | -10.3
21 | CC(C)Oc1ccc(C2CC(=O)N(Nc3ccc([N+](=O)[O-])cc3[N+](=O)[O-])C2=O)cc1 (stereo not shown) | -15.6
22 | Cc1cc2nc(C3CCCN(C(=S)Nc4ccccc4C)C3)[nH]c2cc1C (stereo not shown) | -0.115

Row | SMILES | hERG current change (%, negative = inhibition) at 10uM [%]
23 | Cc1cc(C)n(-c2nc3c(c(=O)[nH]c(=O)n3C)n2CC(O)COc2ccccc2C)n1 (stereo not shown) | -31.9
24 | Cc1cccc(CCNS(=O)(=O)c2cnc[nH]2)c1 | 4.35
25 | CC(C)Sc1n[nH]c(=O)n1-c1cccc(C(F)(F)F)c1 | 17.1
26 | CCN(CC)C(=O)C1CC(c2ccc(OC)cc2)=NO1 (stereo not shown) | 1.85
27 | CCc1cccc(C)c1NC(=S)N(CCCN1CCN(C)CC1)Cc1cccs1 | -30.9
28 | Cl.N=c1sccn1CC(=O)NCCc1ccc(Cl)cc1Cl | -36
29 | O=C1Nc2ccccc2C1c1ncc(C(F)(F)F)cc1Cl (stereo not shown) | 23.2
30 | CC(=O)Nc1ccc(OCC(=O)NCCc2ccccc2)cc1 | 21.8
31 | C/C=C/c1ccc(OCCCNC2CCCC2)c(OC)c1.O=C(O)C(=O)O | -57.6
32 | Nn1c(SCC(=O)N2CCN(S(=O)(=O)c3ccccc3)CC2)nnc1-c1cccs1 | -10.1
33 | Cc1cc(C)n(-c2nc(-c3cccc(Cl)c3)cs2)n1 | 5.87
34 | COc1ccc([N+](=O)[O-])cc1NC(=O)COC(=O)C1CC1 | 9.71
35 | COc1ccc(/C(C)=N/OCC(=O)N=Nc2c(O)[nH]c3ccc(Br)cc23)cc1 | 9.9
36 | O=C1CN2NC(=S)N(c3ccccc3)C2=CN1c1ccc(Cl)cc1 | 15.2
37 | CC(C)Oc1ccc(CNC(=O)CCCN2C(=O)C(c3ccccc3)Oc3cccnc32)cc1 (stereo not shown) | 18.2
38 | CC1CC(c2ccccc2)=Nc2ccccc2N1 (stereo not shown) | 5.46
39 | CCN(CC)S(=O)(=O)c1ccc(Cl)c(C(=O)Nc2cccnc2)c1 | -55.8
40 | Cc1ccnc2ccc(SC(F)(F)F)cc12 | -0.416
41 | CC(C)COP(=O)(OCC(C)C)C(O)c1ccc(F)cc1 (stereo not shown) | 0.0329
42 | CC(C)(C)C(=O)NC1CCN(C(=O)N2CCCC2)CC1 | 10.2
43 | CC(=O)NC(=S)c1c(N)n(Cc2ccccc2)c(=O)n(C)c1=O | -4.74
44 | Cc1cnc(C(=O)OCC(=O)C23CC4CC(CC(C4)C2)C3)cn1 | -1.92

Row | SMILES | hERG current change (%, negative = inhibition) at 10uM [%]
45 | COc1ccc(NC(=O)c2cccc(N3C(=O)c4cccc([N+](=O)[O-])c4C3=O)c2)cc1 | 9.88
46 | Cc1ccc(NC(=O)COC(=O)CN2C(=O)NC3(CCCC3)C2=O)cc1S(=O)(=O)N(C)C | 9.09
47 | C[C@H](NC(=O)c1cc2cc(Cl)ccc2n1C)C(=O)N1CCC[C@H]1C(=O)O | 13.7
48 | CN(C)C=O.NS(=O)(=O)c1cccc(NC(=O)CSc2nc3nc(-c4cccs4)cc(C(F)(F)F)c3c(=O)[nH]2)c1 | 7.85
49 | CNC(=S)N(Cc1cc2cc(C)cc(C)c2[nH]c1=O)C1CCCC1 | -3.94
50 | O=C(CSc1nnc2ccc(-c3ccc(F)cc3)nn12)N1CCCC1 | -13.5
51 | COc1ccccc1NC(=O)CSc1nnc(-c2ccoc2C)o1 | 4
52 | CCCCn1nnnc1NCc1ccc(C)s1 | 9.11
53 | CCc1nnc2c(N(C)S(=O)(=O)c3ccc(C)cc3)nc3ccccc3n12 | 0.622
54 | CCN(CC)S(=O)(=O)c1ccc(NN=C(C#N)C#N)cc1 | -14.9
55 | COc1ccccc1CCc1nnc(CCC(=O)N(C)Cc2ccncc2C)o1 | 4.14
56 | Cc1ccc(Cl)cc1NC(=O)C1COc2ccccc2O1 (stereo not shown) | 18
57 | CC1Sc2ccc(S(=O)(=O)CCC(=O)NC3CCCCCC3)cc2NC1=O (stereo not shown) | 13
58 | C=CCn1c(O)c(/C(C)=N/N2CCN(C)CC2)c(=O)[nH]c1=O | 10.4
59 | O=C(NC(=S)NCC1CCCO1)c1ccccc1 (stereo not shown) | 9.2
60 | CCOc1ccc(-c2nc(CSc3nnc(C)s3)cs2)cc1OC | -8.03
61 | Cl.c1ccc(CNc2ccc3c(c2)ncn3C2CCCCC2)nc1 | -34.4
62 | O=C(CCC(=O)Nc1cccc(C(F)(F)F)c1)NCC1CCCO1 (stereo not shown) | 11.1
63 | O=C1NCCN(Cc2ccoc2)C1CC(=O)N(CCO)Cc1ccccc1 (stereo not shown) | 18
64 | CCOC(=O)c1c(-c2cccs2)csc1NC(=O)CCCC(=O)O | -5.65
65 | CC(=O)O[C@@H]1[C@H]2[C@@H](C[C@@H](C)[C@@H]3CCC(=O)[C@@]13C)OC(=O)[C@@H]2C | 7.87
66 | Cc1ccccc1OCc1nc(-c2ccc(-n3cccc3)cc2)no1 | 2.66

Row | SMILES | hERG current change (%, negative = inhibition) at 10uM [%]
67 | O=C(Nc1nccs1)c1ccccn1 | -3.04
68 | O=C(NCCS(=O)(=O)N1CCN(c2ccccc2)CC1)c1cccc(F)c1 | 7.52
69 | CC(Cn1cncn1)NC(=O)c1cc(COc2cccc(C(F)(F)F)c2)on1 (stereo not shown) | 2.2
70 | Cc1c(/N=C(\[O-])Nc2ccc(Br)cc2)sn[n+]1C | -14.3
71 | O=C(/C=C/c1cccs1)Nc1sc2c(c1C(=O)O)CCCC2 | 28.5
72 | COc1ccc(NC(=O)c2ccc(NC3=NC4CS(=O)(=O)CC4S3)cc2)cc1 (stereo not shown) | 6.58
73 | Cc1cc(C)c(OCC(=O)OC(C)C(=O)NC2CC2)c(C)c1 (stereo not shown) | 20.9
74 | O=C(NC(=S)Nc1ccccc1[N+](=O)[O-])c1ccccc1Cl | 11.7
75 | CCn1c(SCC(=O)Nc2ccc(OC)cc2)nc2c(c1=O)SCC2 | 0.605
76 | Cc1c(Cl)cccc1NC(=S)NCC(O)c1ccccc1 (stereo not shown) | 4.18
77 | COc1ccccc1OCCC(=O)NNC(=O)c1ccccc1F | 10.3
78 | COC(=O)c1nnn(-c2nonc2N)c1-c1cccs1 | -10.7
79 | CCOc1ccccc1NC(=O)C1CCCCN1S(=O)(=O)c1ccccc1 (stereo not shown) | -3.03
80 | CCCCc1cn([C@@H](CCCCN)C(=O)N2CCNCC2)nn1.Cl | 18.8
81 | CCN(CC(=O)NCCCN1CCOCC1)S(=O)(=O)c1ccc(F)cc1 | 15.7
82 | COc1ccc(C2SCC(=O)Nc3c2c(=O)[nH]n3C2CCCCCC2)cc1OC (stereo not shown) | -5.65
83 | CCOc1ccccc1NC(=O)C1CCC(=O)N1S(=O)(=O)c1ccc(C)cc1 (stereo not shown) | -0.512
84 | CCC(C)(C)C1CCc2[nH]nc(C(=O)NC3CCCCC3)c2C1 (stereo not shown) | 9.13
85 | O=C(Cn1cncn1)N/N=C/c1ccc(Cl)cc1 | 11.4
86 | COc1ccc(C2C(C(C)=O)=C(Nc3ccccc3)CC(C)(O)C2C(C)=O)cc1OC (stereo not shown) | -23.9
87 | CCOc1ccc(N(CC(=O)NCCc2ccc(Cl)cc2)S(=O)(=O)c2c(C)[nH]c(=O)[nH]c2=O)cc1 | 50.2
88 | COc1ccc(C(=O)N2CCN(c3ccc(C(C)=O)cc3F)CC2)cc1S(=O)(=O)NC1CC1 | -37.5
